Results reported in PubChem BioAssay AID623901 (Broad Institute, 2012).
About 470 (0.14%) of roughly 340,000 compounds were called active. Inconclusive means that the source gave no clear call. Such entries were picked first, then a sample of the others.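 Rule for the calls: active = mean activation of 30% or more, with every replicate also reaching 30%; inconclusive = mean activation of 30% or more but some replicate falls short; inactive = the rest.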

Test: small molecules raising miR-122 sensor signal – cell-based, Huh7 psiCHECK-miR122, Renilla luciferase, single point, primary screen (AID 623901);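 note: 0% = median of neutral control wells and 100% = median of positive control wells; higher luciferase signal means stronger suppression of miR-122 activity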
Conditions: 48 h, at 12.5 µM, stronger effect = higher value

activation, inactive:
C[C@H](CO)N1C[C@H](C)[C@@H](CN(C)C(=O)c2cccc(F)c2)Oc2ncc(-c3cccc(F)c3)cc2C1=O 2.43%
C[C@@H]1CN([C@@H](C)CO)C(=O)c2cc(C#CCc3ccccc3)cnc2O[C@@H]1CN(C)Cc1ccccn1 2.23%
C[C@@H]1CN([C@@H](C)CO)C(=O)Cc2cc(N(C)C)ccc2O[C@@H]1CN(C)Cc1ccc(C(=O)Nc2ccccc2N)cc1 -142%
CCCC#Cc1cnc2c(c1)C(=O)N([C@@H](C)CO)C[C@H](C)[C@@H](CN(C)C(=O)C1CC1)O2 4.83%
COc1ccc(OC)c(S(=O)(=O)Nc2ccc(C(C)=O)cc2)c1 -99.6%
COc1ccc(C)cc1NS(=O)(=O)c1ccc2c(c1)N(C)CCO2 -149%
CCCC#Cc1ccc2c(c1)O[C@H](CN(C)C(=O)CC)[C@H](C)CN([C@@H](C)CO)S2(=O)=O -1.18%
C[C@@H]1CN([C@@H](C)CO)C(=O)c2cc(-c3ccccc3)cnc2O[C@H]1CN(C)C(=O)c1cccnc1 10.8%
Cc1ccc(-c2cnc3c(c2)C(=O)N([C@H](C)CO)C[C@H](C)[C@H](CN(C)C(=O)c2ccncc2)O3)cc1 -3.08%
C/C=C/c1ccc2c(c1)O[C@@H](CN(C)C(=O)Cc1ccccn1)[C@@H](C)CN([C@@H](C)CO)S2(=O)=O 0.185%
COc1cc(C)c(S(=O)(=O)NOCc2ccc([N+](=O)[O-])cc2)c(C)c1C -323%
COc1cccc(N2CCN(C(=O)c3oc4ccccc4c3NC(=O)Cc3ccc(OC)c(OC)c3)CC2)c1 -96.4%
CCCNC(=O)N(C)C[C@H]1Oc2cc(C#Cc3ccccn3)ccc2S(=O)(=O)N([C@H](C)CO)C[C@@H]1C -9.64%
C[C@@H]1CN([C@H](C)CO)C(=O)c2cc(-c3cccc(F)c3)cnc2O[C@@H]1CN(C)C(=O)c1ccccn1 -0.191%
COc1ccc(C#Cc2cnc3c(c2)C(=O)N([C@H](C)CO)C[C@@H](C)[C@H](CN(C)CC2CCCC2)O3)cc1 -13.6%
COc1ccc(NC(=O)Nc2ccc3c(c2)OC[C@H](C)NC[C@H](C)[C@H](OC)CN(C)C3=O)cc1 -1.47%
Cc1ccc(C(=O)Nc2ccccc2-c2ccccc2)cc1S(=O)(=O)Nc1ccccc1 -94%
C[C@H]1CN([C@@H](C)CO)C(=O)c2cc(C#CC3(O)CCCC3)cnc2O[C@H]1CN(C)Cc1cncnc1 -4.17%

activation, active:
Cc1cccc(C)c1NC(=O)CSCC(=O)c1ccc(O)c(O)c1 35.5%
CCN(CC)CCNc1nc(-c2ccccc2)nnc1C(F)(F)F 44.1%
CC(C)C(=O)Nc1ccc2c(c1)C(=O)N(C)[C@H]1CC[C@H](CC(=O)NCCc3ccccc3)O[C@H]1CO2 53.3%
C/C=C/c1ccc2c(c1)O[C@H](CN(C)C(=O)Cc1cccnc1)[C@H](C)CN([C@H](C)CO)S2(=O)=O 42.6%
CN(C)C(=O)c1ccc(-c2ccc([C@H]3[C@@H](CO)N4CCCCN(C(=O)C5CCCC5)C[C@@H]34)cc2)cc1 30.2%
CCOc1ccc(-c2nnc(SCC(=O)Nc3ccc4c(c3)c3ccccc3n4CC)n2N)cc1 53.6%
COc1ccccc1C#Cc1ccc2c(c1)O[C@H](CN(C)Cc1cccnc1)[C@@H](C)CN([C@@H](C)CO)S2(=O)=O 40.5%
CN1C(=O)c2cc(NC(=O)c3cccc(F)c3)ccc2OC[C@H]2O[C@@H](CC(=O)O)CC[C@H]21 53.3%
COc1cccc(CNC(=O)C[C@H]2CC[C@@H]3[C@@H](COc4ccc(NC(C)=O)cc4C(=O)N3C)O2)c1 53.3%
COc1cccc(N2CCN(c3ncnc4c3[nH]c3ccc(F)cc34)CC2C)c1 (centres undefined) 31.8%
CC(C)Oc1ccc(CNCCC2(C(C)C)CCOC(C)(C)C2)cc1 (centres undefined) 70.5%

activation, inconclusive:
CC(C)C(=O)Nc1ccc2c(c1)C(=O)N(C)[C@@H]1CC[C@H](CC(=O)O)O[C@H]1CO2 33.3%
CN(C[C@H]1N[C@@H](CO)[C@@H]1c1ccc(C2=CCCC2)cc1)C(=O)c1ccccn1 75%
CN1C(=O)c2cc(NC(=O)Cc3ccccc3)ccc2OC[C@H]2O[C@@H](CC(=O)NC3CCC3)CC[C@H]21 32.5%
CNC(=O)C[C@@H]1CC[C@H]2[C@@H](COc3ccc(NC(=O)c4cccc(OC)c4)cc3C(=O)N2C)O1 33.3%
O=C(NC[C@@H]1N[C@@H](CO)[C@H]1c1ccccc1)C1CCC1 35.7%
CN1C(=O)c2cc(NC(=O)Nc3cccc(Cl)c3)ccc2OC[C@H]2O[C@H](CC(=O)NCCc3ccncc3)CC[C@H]21 42.5%
CC(C)NC(=O)N1C[C@@H]2[C@H](c3ccccc31)[C@H](CO)N2Cc1ccccc1 36.5%
C/C=C/c1ccc([C@H]2[C@@H](CO)N(C(=O)C3CC3)[C@H]2CNC(=O)NC(C)C)cc1 41.7%
O=C(NC[C@H]1[C@H](c2ccccc2)[C@H](CO)N1CC1CCCC1)c1ccncc1 58.3%
Cc1ccc(S(=O)(=O)NCCCNS(C)(=O)=O)cc1 55.1%
C[C@@H]1CN([C@@H](C)CO)C(=O)Cc2cc(NS(=O)(=O)c3ccc(Cl)cc3)ccc2O[C@H]1CN(C)Cc1ccc(C(F)(F)F)cc1 30.1%
C/C(=N\Nc1cc(N2CCCCC2)nc(C)n1)c1ccc(Br)cc1 30.6%
CC(=O)Nc1ccc(S(=O)(=O)Nc2ccc(S(=O)(=O)Nc3nc(C)cc(C)n3)cc2)cc1 34.5%
CCNC(=O)C[C@H]1CC[C@H]2[C@H](COc3ccc(NS(C)(=O)=O)cc3C(=O)N2C)O1 41.7%
CCCNC(=O)Nc1ccc2c(c1)C(=O)N(C)[C@@H]1CC[C@@H](CC(=O)NCC3CCCCC3)O[C@H]1CO2 33.3%
CN1C(=O)c2cc(NC(=O)c3ccc(Cl)cc3)ccc2OC[C@@H]2O[C@H](CC(=O)NCc3cccc(F)c3)CC[C@@H]21 32.5%
Nc1ccc2c(c1)C(=O)C(=O)c1ccccc1-2 30.6%
CCN1/C(=C/c2ccc3cccc(C)c3[n+]2CC)Sc2ccccc21 31%
CN(C)C(=O)C[C@@H]1CC[C@@H]2[C@@H](COc3ccc(NC(=O)C4CC4)cc3C(=O)N2C)O1 37.8%
CCN(CC)CCN1C(=O)C(=O)/C(=C(/O)c2c(C)[nH]c(C(=O)OC)c2C)C1c1cccs1 (centres undefined) 41.2%
Cc1ccc(NCC(=O)c2ccccc2)cc1Cl 31%
CCCNC(=O)Nc1ccc2c(c1)C(=O)N(C)[C@@H]1CC[C@H](CC(=O)O)O[C@H]1CO2 33.3%
COc1ccc(CN2CCN(Cc3cccn3-c3ncccn3)CC2CCO)c(C)c1C (centres undefined) 43.9%
COCC(=O)Nc1ccc2c(c1)C(=O)N(C)[C@@H]1CC[C@@H](CC(=O)NC3CCCC3)O[C@@H]1CO2 60%
O=C1Nc2cc(C(=O)NCCN3CCCCCC3)ccc2S/C1=C/c1ccccc1F 31.2%
C/C=C/c1ccc([C@@H]2[C@@H](CO)N(C(C)=O)[C@@H]2CN(C)C(=O)c2ccccn2)cc1 75%
CC(C)NC(=O)Nc1ccc2c(c1)C(=O)N(C)[C@H]1CC[C@H](CC(=O)NCC(F)(F)F)O[C@H]1CO2 33.3%
Cc1cccc(NC(=O)Nc2ccc3c(c2)C(=O)N(C)[C@@H]2CC[C@H](CC(=O)NCc4ccccc4Cl)O[C@H]2CO3)c1 38.3%
COC(=O)c1ccc(-c2nc(O)c3cnccn23)cc1 31.2%
COc1cccc(NC(=O)N[C@H]2CC[C@H](CC(=O)Nc3ccc(-c4ccccc4)cc3)O[C@@H]2CO)c1 31.4%
Cc1cc(C)n(C(=O)Cn2nc(C)c(Br)c2C)n1 31.1%
CC(=O)N1[C@@H](CO)[C@@H](c2ccccc2)[C@@H]1CNC(=O)CN1CCOCC1 41.7%
CC(C)(C)c1cc(NCCCn2ccnc2)n2ncc(-c3ccc(Cl)cc3)c2n1 31.9%
CCCCCn1c(=O)[nH]c2cc(C(=O)NCCN3C(C)CCCC3C)ccc2c1=O (centres undefined) 30.2%
CN1C(=O)c2cc(NC(=O)Cc3ccccc3)ccc2OC[C@@H]2O[C@@H](CC(=O)NCc3ccc(Cl)cc3)CC[C@H]21 33.3%
CCN(C[C@H]1[C@H](c2ccccc2)[C@@H](CO)N1S(C)(=O)=O)C(=O)C1CC1 91.7%
CCNC(=O)Nc1ccc2c(c1)C(=O)N(C)[C@H]1CC[C@@H](CC(=O)NCCOC)O[C@@H]1CO2 41.7%
COc1ccc(S(=O)(=O)Nc2ccc3c(c2)CC(=O)N([C@@H](C)CO)C[C@@H](C)[C@H](CN(C)Cc2ccc(C(F)(F)F)cc2)O3)cc1 30.9%
O=C(N/N=C/c1ccco1)c1cccc(N2CCCC2=O)c1 30.5%
C[C@H]1CN([C@@H](C)CO)C(=O)c2cc(C#Cc3cccnc3)cnc2O[C@H]1CN(C)S(=O)(=O)c1ccccc1F 34.1%
